Drawing on article PMC3502545, this text covers binding for three substances.

By UniProt entry, the sequences of proteins in these tests, tags left out. Where a name states a change or a piece, a line headed by the entry shows the natural chain unless it says otherwise. Chains listed by the source or under a name are the forms on record and can include a tag or linker. Residues count along the entry.
UniProt O00429: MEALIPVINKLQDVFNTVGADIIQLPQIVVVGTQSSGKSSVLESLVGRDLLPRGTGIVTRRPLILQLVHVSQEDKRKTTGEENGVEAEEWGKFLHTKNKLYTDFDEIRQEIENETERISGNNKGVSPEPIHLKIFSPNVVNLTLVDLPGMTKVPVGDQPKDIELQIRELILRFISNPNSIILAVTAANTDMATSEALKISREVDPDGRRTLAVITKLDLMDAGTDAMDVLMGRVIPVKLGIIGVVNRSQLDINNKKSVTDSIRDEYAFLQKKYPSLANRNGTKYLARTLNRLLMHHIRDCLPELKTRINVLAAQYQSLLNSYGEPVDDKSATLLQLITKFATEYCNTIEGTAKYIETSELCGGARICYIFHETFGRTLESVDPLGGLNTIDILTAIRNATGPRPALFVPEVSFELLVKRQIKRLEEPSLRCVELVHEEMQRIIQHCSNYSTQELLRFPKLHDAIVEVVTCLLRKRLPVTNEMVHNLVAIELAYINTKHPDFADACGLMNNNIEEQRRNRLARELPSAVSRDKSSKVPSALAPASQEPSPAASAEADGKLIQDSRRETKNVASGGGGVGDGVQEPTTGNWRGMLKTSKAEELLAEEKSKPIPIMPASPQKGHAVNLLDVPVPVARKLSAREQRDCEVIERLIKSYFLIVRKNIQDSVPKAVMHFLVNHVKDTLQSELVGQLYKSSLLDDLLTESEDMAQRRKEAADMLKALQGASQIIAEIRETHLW
Drp1 truncate 1 fragment (Drp1 1-489), yeast two-hybrid fusion: residues 1-489 of O00429
His-tagged Drp1 444-736 fragment (pET-32a(+)): residues 444-736 of O00429
Drp1 truncate 2 fragment (Drp1 502-736), yeast two-hybrid fusion: residues 502-736 of O00429
Drp1 truncate 5 (Drp1 634-690), yeast two-hybrid fusion: residues 634-690 of O00429
UniProt P49841: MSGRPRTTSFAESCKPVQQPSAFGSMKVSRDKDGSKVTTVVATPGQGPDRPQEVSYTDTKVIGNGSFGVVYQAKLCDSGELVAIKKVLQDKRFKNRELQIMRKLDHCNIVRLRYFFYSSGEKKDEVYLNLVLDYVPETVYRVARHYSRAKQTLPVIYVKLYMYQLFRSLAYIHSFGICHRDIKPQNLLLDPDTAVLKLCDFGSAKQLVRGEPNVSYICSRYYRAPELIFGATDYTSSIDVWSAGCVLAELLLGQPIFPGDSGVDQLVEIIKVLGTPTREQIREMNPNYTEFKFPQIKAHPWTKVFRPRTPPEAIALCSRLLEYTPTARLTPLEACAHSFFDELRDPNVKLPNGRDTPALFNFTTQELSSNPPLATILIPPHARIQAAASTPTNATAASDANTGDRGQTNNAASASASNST

No constants are given. Whether binding was seen depends on the method and setting. Some entries that bind do so weakly or less than the wild type.

Test [1] deals with His-tagged Drp1 634-690 fragment (pET-32a(+)) (human) (UniProt O00429). As to the kind of experiment: far-Western, overlay or dot blot; recombinant His-tagged Drp1 full-length or fragments separated on 12% SDS gel, transferred to PVDF, incubated with HeLa cell lysate containing FLAG-tagged GSK3beta; detected with anti-FLAG; only the target purified.
Test [2] concerns the target His-tagged Drp1 444-736 fragment (pET-32a(+)) (human) (UniProt O00429). The description is as above.
In test [3] the target is Drp1 truncate 2 (Drp1 502-736) S693D, yeast two-hybrid fusion (human) (UniProt O00429). Nature of the test: two-hybrid; Figure 3C: Drp1 truncate 2 and 5 and truncate 2 point mutants against GSK3beta; which was bait is not given; result as + or -.
Test [4] addresses Drp1 truncate 2 (Drp1 502-736) K679A, yeast two-hybrid fusion (human) (UniProt O00429). Described as above.
In test [5] the target is Drp1 truncate 2 fragment (Drp1 502-736), yeast two-hybrid fusion (human) (UniProt O00429). The description is as above.
Test [6] deals with Drp1 truncate 5 (Drp1 634-690), yeast two-hybrid fusion (human) (UniProt O00429). The test is described as above.
In test [7] the target is Drp1 truncate 1 fragment (Drp1 1-489), yeast two-hybrid fusion (human) (UniProt O00429). As to the kind of experiment: two-hybrid; Figure 1A: Drp1 constructs as bait (pAS2-1), GSK3beta as prey (pACT-2); beta-galactosidase (blue/white) and HIS3 induction, 5 mM 3-AT.
Test [8] has as its target Drp1 truncate 2 fragment (Drp1 502-736), yeast two-hybrid fusion (human) (UniProt O00429). Described as above.
Test [9] deals with Drp1 truncate 5 (Drp1 634-690), yeast two-hybrid fusion (human) (UniProt O00429). The description is as above.
Test [10] deals with GSK3beta, yeast two-hybrid fusion (UniProt P49841). As to the kind of experiment: two-hybrid; Figure 3D: GSK3beta wt or V267G mutant as bait, C-terminal Drp1 with or without K679A as prey; result as + or -.

For the substance “FLAG-tagged GSK3beta (from UniProt P49841 1-420) (enzyme)”, the binding result in test [1] and in [2] was “binds” in each case.
Regarding “GSK3beta, yeast two-hybrid fusion (from UniProt P49841 1-420) (enzyme)”, the binding result in test [3] was “binds”; in test [4] it was “no binding”; in test [5], “binds”; in test [6] it was “binds”; in test [7], “no binding”; in test [8], “binds”. Also, in test [9], the binding result was “binds”.
As for “Drp1 truncate 2 (Drp1 502-736) K679A, yeast two-hybrid fusion (from UniProt O00429 502-736) (domain or fragment)”, the binding entry in test [10] is given as “no binding”.
